1 molecule from PubChem BioAssay (NCI) can be followed below.

The subject of the test is NCI-H322M lung. Put plainly: growth of human tumour cells (NCI), 48 h.

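Each compound was tested at five concentrations against cells in 96-well plates for 48 hours. Abbreviation: GI50, concentration required for 50% inhibition of growth. TGI: total growth inhibition.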

On to `C#Cc1nc(C2=C(C)C(O)/C(=N/O)C2)cs1` (configuration not stated), for which the GI50 is 83.5 µM and the TGI is more than 100 µM.
